From PMC4336329 (PLoS ONE, 2015)
The whole screen tested about 310,000 compounds, of which about 2,200 (0.71%) showed an effect of 50% or more. Effects have a minus sign here. The list shows a part of the results.

target: human ether-à-go-go-related gene (hERG) potassium channel (human, UniProt Q12809); assay: primary screen, population patch clamp on CHO cells stably expressing hERG
Sequence (Q12809 whole entry, looked up): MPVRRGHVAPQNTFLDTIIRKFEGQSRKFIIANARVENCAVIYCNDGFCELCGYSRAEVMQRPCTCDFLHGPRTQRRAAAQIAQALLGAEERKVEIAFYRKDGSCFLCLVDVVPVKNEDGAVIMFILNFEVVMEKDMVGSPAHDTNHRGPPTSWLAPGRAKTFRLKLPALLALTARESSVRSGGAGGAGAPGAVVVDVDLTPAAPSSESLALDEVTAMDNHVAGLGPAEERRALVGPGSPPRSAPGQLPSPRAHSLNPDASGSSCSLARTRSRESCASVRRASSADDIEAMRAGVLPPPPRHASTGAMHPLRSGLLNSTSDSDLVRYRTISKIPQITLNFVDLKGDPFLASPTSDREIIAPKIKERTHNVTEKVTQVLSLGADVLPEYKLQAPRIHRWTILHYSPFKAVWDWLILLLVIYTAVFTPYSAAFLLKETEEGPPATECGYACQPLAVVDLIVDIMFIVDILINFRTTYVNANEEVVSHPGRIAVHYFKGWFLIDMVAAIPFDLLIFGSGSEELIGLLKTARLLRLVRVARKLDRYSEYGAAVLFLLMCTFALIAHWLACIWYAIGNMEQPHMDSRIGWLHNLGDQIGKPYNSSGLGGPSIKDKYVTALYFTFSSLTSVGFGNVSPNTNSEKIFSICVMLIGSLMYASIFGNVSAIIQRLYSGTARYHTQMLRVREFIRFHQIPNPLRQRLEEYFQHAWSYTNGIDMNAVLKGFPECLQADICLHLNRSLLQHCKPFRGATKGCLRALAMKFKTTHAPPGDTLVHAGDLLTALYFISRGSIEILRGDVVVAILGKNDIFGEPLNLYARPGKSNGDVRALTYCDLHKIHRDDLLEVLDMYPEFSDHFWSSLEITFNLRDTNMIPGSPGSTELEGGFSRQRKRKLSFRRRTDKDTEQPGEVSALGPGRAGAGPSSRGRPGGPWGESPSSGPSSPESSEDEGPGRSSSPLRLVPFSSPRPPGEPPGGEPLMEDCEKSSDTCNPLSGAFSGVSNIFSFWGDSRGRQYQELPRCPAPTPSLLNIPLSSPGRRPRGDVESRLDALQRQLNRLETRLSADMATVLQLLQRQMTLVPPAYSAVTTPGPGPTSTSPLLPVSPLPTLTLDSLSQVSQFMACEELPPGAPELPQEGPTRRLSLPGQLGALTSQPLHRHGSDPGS

Row | SMILES | hERG current change (%, negative = inhibition) at 1uM [%]
1 | COc1ccc(-c2noc(CCCC(=O)O)n2)cc1 | 0.0739
2 | O=S(=O)(c1ccc(Br)cc1)c1cnc2ccccc2n1 | 13.3
3 | Nc1nc(O)c(N=Nc2ccc(S(N)(=O)=O)cc2)c(=O)[nH]1 | 13.9
4 | CCCCC(=O)Nc1ccc(C(=O)NCCc2ccc(S(N)(=O)=O)cc2)cc1 | 14.4
5 | COc1cccc(CC2(CO)CCCN(Cc3ccccc3-c3ccco3)C2)c1 (stereo not shown) | -55.6
6 | CCC(=O)OCC(=O)N=c1sccn1Cc1ccccc1Cl | 2.94
7 | O=C(NN1CCOCC1)c1ccc(Cl)c([N+](=O)[O-])c1 | 10.2
8 | COc1cc(OC)cc(C(=O)Nc2sc3c(c2C(N)=O)CCC3)c1 | 20.3
9 | O=C(NC1CCCCC1)N1CCc2ccccc21 | -5.2
10 | CCc1ccccc1NS(=O)(=O)c1ccc2c(c1)NC(=O)CC(=O)N2 | 10.6
11 | O=C(Nc1ccccc1N1CCCCC1)c1cccc(F)c1 | 13.2
12 | COc1ccccc1CNC(=O)c1ccc(CNc2c(N3CCCC3)c(=O)c2=O)cc1 | 11.1
13 | CCCc1c(C(=O)N/N=C/c2ccc(OCc3ccccc3)c(OC)c2)nnn1-c1nonc1N | 20.7
14 | CCn1c(SCC(=O)NNC(=S)Nc2ccc(C)cc2)nnc1-c1ccc(Cl)cc1 | 10
15 | CCc1ccccc1NC(=O)CN(C)S(=O)(=O)c1ccc(-c2ccc(=O)[nH]n2)s1 | -31.5
16 | O=C(Nn1cnc2ccccc2c1=O)c1ccc([N+](=O)[O-])cc1Cl | 12.3
17 | Cc1cc(C)c(CN2CCC(n3nccc3NC(=O)C3CCCC3)CC2)cc1C | -26.4
18 | CN(C)c1ncc([N+](=O)[O-])cc1C(F)(F)F | 16.9
19 | COc1ccccc1-c1nc2ccc(Cl)cc2c(=O)n1O | 6.14
20 | CCOc1ccccc1N(CC)C(=O)c1ccc2c(=O)n3c(nc2c1)CCCCC3 | 7.02
21 | NC(=O)Nc1ccc(C(=O)OCC(=O)N(Cc2ccccc2)C2CCS(=O)(=O)C2)cc1 (stereo not shown) | 23.8
22 | Nc1[nH]nc2nc(NCc3ccccc3)c3c(c12)CCN(Cc1ccccc1)C3 | 4.08

Row | SMILES | hERG current change (%, negative = inhibition) at 1uM [%]
23 | CCC(C)CCCCCCCCCCC(=O)O (stereo not shown) | 24.1
24 | C=C(C)COc1ccc2c(CC)cc(=O)oc2c1 | 13.1
25 | CSc1cccc(NC(=S)N(CCCN2CCCC(C)C2)Cc2cccs2)c1 (stereo not shown) | -24
26 | CC(C)(C)c1ccc(C(=O)N2CCN(Cc3ccccc3)CC2)cc1 | 11
27 | CCOc1ccc(S(=O)(=O)Nc2ccc(C(=O)N3CCCC3)cc2)cc1 | 8.52
28 | Cc1nn(Cc2cccc(C(=O)NN)c2)c(C)c1Cl | 12.9
29 | CCCS(=O)(=O)N1CCc2ccc(NC(=O)C3CCCO3)cc2C1 (stereo not shown) | 0.153
30 | Cc1cc(C(=O)Nc2ccc(C(=O)O)cc2)c(-c2ccccc2)o1 | -3.53
31 | CCCCc1ccccc1NC(=S)NC1CCCC1 | 14.6
32 | Cc1nn2c(SCC(=O)c3cccs3)cc(C(C)(C)C)nc2c1-c1ccccc1 | 12.7
33 | CC1CN(S(=O)(=O)c2cccc(C(=O)N=c3sccn3C)c2)CC(C)O1 (stereo not shown) | 9.18
34 | Cc1ccc(-n2nccc2-c2nn(-c3cccc(C(F)(F)F)c3)c(=O)n(C)c2=O)cc1 | 14.4
35 | COc1cc(/C=N/NC(=O)C(=O)NCc2cccnc2)ccc1O | 1.29
36 | Cn1c(=O)c2sccc2n2c(CCCC(=O)N3CCN(c4ccccn4)CC3)nnc12 | 14
37 | CCOC(=O)c1c(-c2ccc(-c3ccccc3)cc2)csc1NC(=O)C1C2CCC(O2)C1C(=O)O (stereo not shown) | 6.39
38 | COC(=O)c1cc(=O)n(Cc2ccccc2)c(=NCc2ccccc2)s1 | 14.9
39 | O=C(Nc1cccc(C(F)(F)F)c1)NC1CCCCC1 | 0.393
40 | CCCCN(C(=O)c1cc(S(=O)(=O)N2CCOCC2)ccc1Cl)c1c(N)n(CC(C)C)c(=O)[nH]c1=O | -10.1
41 | O=C(Nc1ccccc1N1CCCCC1)c1ccc(Cl)cc1 | 9.07
42 | CCn1cc(S(=O)(=O)N2CCN(c3ccc(Cl)cc3)CC2)cn1 | 9.32
43 | COc1cc(NC(=O)c2noc3c2CCC3)c(OC)cc1Cl | 11
44 | COc1ccc(C2=NC(C)(C)Cc3cc(OC)c(OC)cc32)cc1 | 3.52

Row | SMILES | hERG current change (%, negative = inhibition) at 1uM [%]
45 | CCOc1ccc(N(CC(=O)NC2CCCCC2)C(=O)CNC(=O)c2ccco2)cc1 | -5.99
46 | NS(=O)(=O)c1cccc(NC(=O)Cn2cnc3ccccc3c2=O)c1 | 12.6
47 | CCC(C)NC(=O)C1CC(=O)N(CCc2ccc(F)cc2)C1 (stereo not shown) | 13.6
48 | CCc1nnc(NC(=O)c2c(O)c3c([nH]c2=O)CCCC3)s1 | 12.2
49 | c1ccc(CSc2nnnn2-c2cccc3ccccc23)nc1 | 8.68
50 | CC(=O)C1=C(O)C(=O)N(c2cccc(Br)c2)C1c1ccc(Br)cc1 (stereo not shown) | 14.4
51 | CC(=O)N1CCN(c2nnnn2-c2ccccc2)CC1 | 2.28
52 | COCCN(C(=O)COC(=O)c1ccc(C)s1)c1c(N)n(Cc2ccccc2)c(=O)[nH]c1=O | 9.02
53 | O=C(c1ccc(S(=O)(=O)NCc2ccco2)cc1)N1CCN(Cc2ccc3c(c2)OCO3)CC1 | -11.3
54 | Cc1nc(C(C)N(C)Cc2c(C(=O)N3CCCCC3)nc3c(C)cccn23)c(C)s1 (stereo not shown) | -1.42
55 | Nc1nc2ccc(NC(=O)c3ccco3)cc2s1 | 10.9
56 | O=C(Nc1ccc2c(c1)CCC2)c1cnn2c1NC(c1ccco1)CC2C(F)(F)F (stereo not shown) | 4.97
57 | Cc1cc(N)n(-c2cc(C)c3ccccc3n2)n1 | 9.59
58 | CCN(c1ccc(C(=O)CSc2nnc(C3CC3)n2C2CC2)cc1)S(C)(=O)=O | 8.34
59 | CCN(CC)c1ccc(NC(=O)c2c(C)noc2C)cc1 | 11.4
60 | Cc1ccc(CN2CCCN(Cc3ccccc3C)S2(=O)=O)cc1 | 15.6
61 | N#CCC(=O)N/N=C/c1ccc(Cl)cc1 | 11.2
62 | O=C(CN(c1cccc(C(F)(F)F)c1)S(=O)(=O)c1ccc(Cl)c([N+](=O)[O-])c1)NCc1ccccc1 | 4.09
63 | CCOc1ccc(NC(=O)CCC(=O)NNC(=O)Nc2ccc(Cl)cc2)cc1 | 14.3
64 | CCCC1=C(C(=O)OCC)C(c2ccncc2)n2ncnc2N1 (stereo not shown) | 1.9
65 | COC(=O)C1=C(C)NC(=O)NC1c1ccccc1Cl (stereo not shown) | 18
66 | Cc1c(C(=O)N(Cc2ccccc2Cl)C2CCS(=O)(=O)C2)oc2ccccc12 (stereo not shown) | 7.32

Row | SMILES | hERG current change (%, negative = inhibition) at 1uM [%]
67 | Oc1ccc(Cl)cc1-c1cc(-c2cccc(Br)c2)n[nH]1 | 12.1
68 | O=[N+]([O-])c1ccc(Oc2cccnc2)nc1 | 8.14
69 | CCCS(=O)(=O)c1nc(S(=O)(=O)c2ccc(C)cc2)c(N2CCN(CC)CC2)s1 | 0.548
70 | CS(=O)(=O)O.Clc1cccc2c1Sc1ccccc1CC2N1CCNCC1 (stereo not shown) | -46.3
71 | COc1ccc(C(=O)Nc2cccnc2)cc1C(=O)Nc1cccnc1 | 16
72 | O=[N+]([O-])c1cc(C(F)(F)F)ccc1NC1CCN(Cc2ccccc2)CC1 | 3.28
73 | Cc1cccc(NS(=O)(=O)c2ccc(C(=O)N3CCC3)cc2)c1C | 10.9
74 | CCOc1ccc(NC(=O)NNC(=O)C(C)Oc2ccccc2OC)cc1 (stereo not shown) | 1.3
75 | CCCCC(=O)Nc1nc(C)c(-c2csc(Nc3cc(Cl)ccc3OC)n2)s1 | 2.54
76 | N/C(=N\OC(=O)c1ccc(Br)cc1)c1ccncc1 | 16.2
77 | Cc1ccccc1CNS(=O)(=O)c1c(C)[nH]c(C)c1C(=O)N1CCCCC1 | -8.49
78 | CCOC(=O)c1ccc(NC(=O)Oc2cc(C)c(Cl)cc2C(C)C)cc1 | 3.35
79 | CC(C)c1ccc(O)c(NC(=O)c2ncn[nH]2)c1 | 3.21
80 | CC1(C)NC(=O)N(CC(O)COc2ccccc2-c2ccccc2)C1=O (stereo not shown) | 8.86
81 | O=C1[C@H]2[C@@H](c3ccc(F)cc3)N3C(=O)N(c4ccc(Br)cc4)C(=O)[C@@]3(Cc3ccccc3)[C@H]2C(=O)N1C1CCCCC1 | 12.3
82 | COc1ccccc1N(C(C)=O)c1nc(C)cc(C)c1C#N | 5.92
83 | CCOC(=O)c1sc(C)c2c(=O)n(CC)nnc12 | 4.83
84 | CCOc1cccc(C2C(C(=O)c3ccc(C)o3)=C(O)C(=O)N2c2nccs2)c1 (stereo not shown) | 5.32
85 | CCC(C)c1ccccc1OCCCN(C)Cc1ccccc1 (stereo not shown) | 14.4
86 | O=c1cc(N2CCN(c3ccc(F)cc3)CC2)[nH]c(=O)n1Cc1ccc(F)cc1 | 10.1
87 | COc1ccc(N2CC(C(=O)N3CCc4ccccc43)CC2=O)cc1 (stereo not shown) | -7.42
88 | Cc1ccc(OCC2Cn3c(nc4c3c(=O)n(C)c(=O)n4C)O2)cc1 (stereo not shown) | 7.46
